Assay results reported in PubChem BioAssay AID759 (NMMLSC, 2007).
Hit rate of the full screen: of about 190,000 compounds, about 270 (0.14%) were called active. The inconclusive results got no clear call from the source; some entries with a clear call stand among them for comparison.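 The calls were made as follows: active = GTP binding activity at least 20% away from the 100% baseline, either lowered as inhibitor or raised as activator; inconclusive = flagged as likely green fluorescent, judged across all proteins in the well; inactive = the rest.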

Each compound was assayed against GTPase HRas (Homo sapiens) (UniProt P01112) (assay: HRas wt fluorescent GTP binding changes, either direction – biochemical, wildtype, bead-based flow cytometry, multiplex, primary screen (AID 759;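 also: 0% = unlabeled GTP competition control and 100% = no-compound control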)). Conditions: GST-Ras wt beads, Bodipy-FL-GTP binding, at 10 µM, actives lie on both sides.
UniProt P01112, sequence (P01112 whole entry, looked up): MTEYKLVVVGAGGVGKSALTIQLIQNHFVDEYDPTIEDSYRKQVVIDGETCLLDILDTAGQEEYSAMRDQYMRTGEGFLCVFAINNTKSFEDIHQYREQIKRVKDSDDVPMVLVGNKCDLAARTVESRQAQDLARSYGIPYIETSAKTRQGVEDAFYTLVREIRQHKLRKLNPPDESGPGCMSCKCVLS
With FC(F)(F)c1ccccc1NC(=S)NC1CCN(Cc2ccccc2)CC1 the GTP binding activity was inconclusive: 101%. In the case of CCn1c(=N)c(C(=O)NCCCOC)cc2c(=O)n3cccc(C)c3nc21, the GTP binding activity was inconclusive: 94%. For COc1ccc(C(=O)NCCc2cc3ccc(C)c(C)c3[nH]c2=O)cc1OC, the GTP binding activity was inconclusive: 89%. With CC(NC(=O)C12CC3(C)CC(C)(CC(C)(C3)C1)C2)C(=O)O (stereo unspecified) the GTP binding activity was inactive: 98%. For CC(C)c1nc2sc3c(=O)[nH]cnc3c2c2c1CCC2, the GTP binding activity was inconclusive: 89%. For Cc1nnnn1CC(=O)Nc1cccc([N+](=O)[O-])c1, the GTP binding activity was inactive: 100%. With COc1ccc(-n2c(N)c(C(=O)NCc3ccco3)sc2=S)cc1 the GTP binding activity was inconclusive: 105%. For CCOc1cc(/C=N/NC(=O)c2ccc(CN3CCOCC3)cc2)ccc1OC, the GTP binding activity was inconclusive: 93%. CCOC(=O)c1c(NC(=O)CSc2ncnc3[nH]ncc23)sc2c1CCC(C)C2 (stereo unspecified) was tested, and the GTP binding activity was inconclusive: 92%. For Cc1nc2ccccc2c(=O)n1N(c1ccccc1)c1ccccc1, the GTP binding activity was inactive: 92%. CCN1C(=O)C(CC(=O)Nc2ccc(F)cc2)N(CCc2ccc(OC)cc2)C1=S (stereo unspecified) was tested, and the GTP binding activity was inconclusive: 171%. For CC(=O)NCCn1c(SCC(=O)OCc2ccccc2)nc2ccccc2c1=O, the GTP binding activity was inconclusive: 103%. O=C(COc1ccc([N+](=O)[O-])cc1)Nn1cnnc1 was tested, and the GTP binding activity was inconclusive: 91%. In the case of CC(=O)OCC1=C(C(=O)O)N2C(=O)C(NC(=O)CCn3nc(C(F)(F)F)c(Br)c3C3CC3)C2SC1 (stereo unspecified), the GTP binding activity was inactive: 93%. With c1ccc(-c2onc3c2CCCC3)cc1 the GTP binding activity was inconclusive: 772%. For Cc1cccn2c(=O)c(/C=C3\SC(=S)N(CC(C)C)C3=O)c(NCCCOC(C)C)nc12, the GTP binding activity was inconclusive: 135%. For CN(C)CCN(C(=O)c1ccc(N2C(=O)CCC2=O)cc1)c1nc2cc3c(cc2s1)OCO3, the GTP binding activity was inconclusive: 109%. With C=CCn1c(-c2cc3cccc(OC)c3o2)n[nH]c1=S the GTP binding activity was inconclusive: 88%. For Cc1cc(-c2n[nH]c(=S)n2/N=C/C(Cl)=C/c2ccccc2)n[nH]1, the GTP binding activity was active: 77%. With COc1ccc(NC(=O)COc2ccccc2C#N)c(S(=O)(=O)N2CCCCC2)c1 the GTP binding activity was inconclusive: 103%. For Cc1cc(Nc2ccc3c(c2)OCCO3)c2cc(Cl)ccc2n1, the GTP binding activity was inconclusive: 98%. For NC(=O)CSc1ccc(-c2ccc(F)cc2)nn1, the GTP binding activity was inactive: 93%. For COc1ccc(CN(C)Cc2nc(Cc3cccc(F)c3)no2)c2cccnc12, the GTP binding activity was inconclusive: 96%. For Cc1ccc2[nH]c(=O)c(CN(Cc3ccc4c(c3)OCO4)Cc3nnnn3Cc3ccco3)cc2c1, the GTP binding activity was inconclusive: 97%. CCCCCn1c(SCCc2ccccc2)nc2c1c(=O)[nH]c(=O)n2C was tested, and the GTP binding activity was inactive: 102%. In the case of O=C(CSc1nc(-c2ccccc2Cl)ns1)Nc1ccc2c(c1)OCO2, the GTP binding activity was inconclusive: 98%. In the case of COc1ccc(CCNC(=O)C(=O)N/N=C/c2cccs2)cc1OC, the GTP binding activity was inactive: 95%. With Cc1nc2c(Cl)cc(Cl)cc2[nH]1 the GTP binding activity was inconclusive: 103%. For Oc1c(C=Nc2cccc3cccnc23)sc2ccccc12, the GTP binding activity was inconclusive: 116%. Cc1cc(C)c(C)c(C(=O)c2ccccc2C(=O)O)c1C was tested, and the GTP binding activity was active: 120% [activator]. For Cc1ccc(OCc2ccc(C(=O)O)o2)c([N+](=O)[O-])c1, the GTP binding activity was inactive: 98%. CCN(CC)c1nc(N)c2c(N)n(-c3ccccc3C)c(=S)c(C#N)c2c1C#N was tested, and the GTP binding activity was inconclusive: 91%. For COc1cc(C)c2c(c1C=O)Oc1c(c(C)c(O)c3c1C(O)OC3=O)OC2=O (stereo unspecified), the GTP binding activity was inactive: 81%. With CC(=O)N1/C(=C/c2ccc(N(C)C)cc2)C(=O)c2ccccc21 the GTP binding activity was inactive: 96%. With COCCCNCC(O)COc1ccccc1F (stereo unspecified) the GTP binding activity was inactive: 96%. For CC(=O)Nc1sc(/C(C#N)=C/c2ccc(Cl)c(Cl)c2)nc1-c1ccc(C)cc1, the GTP binding activity was inconclusive: 117%. In the case of Cc1cccc(CN2C(=O)N/C(=C/c3ccc(C)s3)C2=O)c1, the GTP binding activity was inconclusive: 117%. With COc1cccc(/C=N/n2c(N)c(S(=O)(=O)c3cccs3)c3nc4ccccc4nc32)c1 the GTP binding activity was inconclusive: 79%. O=C(CCc1ccccc1)Nc1ccc2ccccc2n1 was tested, and the GTP binding activity was inactive: 95%. For COC(=O)CSC1=C(C#N)C(c2ccccc2OC)C(C(=O)OC)C(=O)N1 (stereo unspecified), the GTP binding activity was inconclusive: 87%. In the case of COc1cc2c(cc1NC(=O)COC(=O)/C=C/c1ccccc1)oc1ccccc12, the GTP binding activity was inconclusive: 88%. For CCOC(=O)C1=C(CSc2nncn2C)NC(=O)NC1c1cc(OCC)ccc1OCC (stereo unspecified), the GTP binding activity was inconclusive: 89%. CCC(CC)c1nnc(NC(=O)CCNC(=O)c2ccccc2Cl)s1 was tested, and the GTP binding activity was inactive: 95%. In the case of CCCOc1ccc(N2C(=O)CC(N(O)c3ccccc3)C2=O)cc1 (stereo unspecified), the GTP binding activity was inconclusive: 106%. For Clc1ccccc1/C=C/C=N/Nc1nc(N2CCOCC2)nc(N2CCOCC2)n1, the GTP binding activity was inactive: 96%. With O=C(NCC(c1cccs1)N1CCOCC1)c1ccc(Cl)c([N+](=O)[O-])c1 (stereo unspecified) the GTP binding activity was inactive: 101%. In the case of FC(F)(F)c1cccc(Oc2nc(-c3ccccc3)nnc2C(F)(F)F)c1, the GTP binding activity was inconclusive: 105%. In the case of CC(=O)c1cccc(N(C(=O)CNC(=O)c2ccco2)C(C(=O)NCc2ccco2)c2ccccc2)c1 (stereo unspecified), the GTP binding activity was inactive: 99%. For COc1ccc(NC(=O)CCN2CCN(S(=O)(=O)c3ccc(Cl)cc3)CC2)cc1, the GTP binding activity was inconclusive: 93%. For Cc1cc(=O)oc2c3c4c(cc12)OCCN4CCC3, the GTP binding activity was inconclusive: 92%. In the case of CC(C(=O)NN=C(c1ccccc1)c1ccccc1)N1CCCC1 (stereo unspecified), the GTP binding activity was inconclusive: 97%. O=C(O)CC/C(=C\c1ccc(N2CCCC2)c([N+](=O)[O-])c1)c1nc2ccccc2s1 was tested, and the GTP binding activity was active: 79%. Cc1c(Cl)c([N+](=O)[O-])nn1Cc1ccc(C(=O)N/N=C\c2ccccn2)o1 was tested, and the GTP binding activity was inactive: 82%. In the case of O=C(NCCc1ccc2c(c1)OCCO2)c1ccc(F)cc1, the GTP binding activity was inactive: 100%. With O=C(NCc1ccccc1)N(Cc1cc2cc3c(cc2[nH]c1=O)OCCO3)CC1CCCO1 (stereo unspecified) the GTP binding activity was inconclusive: 106%. With CCCCc1nc2n[nH]c(N)c2c2c1CCCC2 the GTP binding activity was inconclusive: 90%. In the case of CSC1=C(C#N)C(c2ccc(C)s2)CC(=O)N1 (stereo unspecified), the GTP binding activity was inconclusive: 105%. In the case of [O-]/C(=C(\C(=S)NCc1ccccc1)[n+]1ccccc1)c1ccc(Cl)s1, the GTP binding activity was inactive: 95%. For CC(C)(C)NC(=O)NC(=O)CSc1ncccn1, the GTP binding activity was inconclusive: 94%. With CCN1CCN(C(=O)CCc2nc3ccccc3c(=O)[nH]2)CC1 the GTP binding activity was inconclusive: 105%. O=C(COc1ccc(C(=O)c2ccccc2)cc1)NCC(=O)Nc1ccccc1Br was tested, and the GTP binding activity was inactive: 94%. In the case of CCOC(=O)c1c[nH]c2c(C)ccc(Cl)c2c1=O, the GTP binding activity was inconclusive: 94%. For COc1ccc(NS(=O)(=O)c2cc(NC(=O)c3nc4nc(C)cc(C)n4n3)ccc2C)cc1, the GTP binding activity was inconclusive: 92%. Cn1c(CSc2nc3ccccc3n2C)nc2ccccc21 was tested, and the GTP binding activity was inconclusive: 104%. With CN(C)c1nc(-c2ccccc2)ncc1S(=O)(=O)c1ccccc1 the GTP binding activity was inconclusive: 95%. In the case of O=C(O)CC/C(=C\c1cc([N+](=O)[O-])ccc1Cl)c1nc2ccccc2s1, the GTP binding activity was inconclusive: 77%. COc1cc2c(cc1OC)C1Cc3ccc(OC)c(OC)c3CN1CC2 (stereo unspecified) was tested, and the GTP binding activity was inconclusive: 104%. In the case of Cc1nnc(NC(=O)CSc2ccc(-c3ccco3)nn2)s1, the GTP binding activity was inconclusive: 97%. COC(=O)c1c(NC(=O)CN2CCN(c3cccc(Cl)c3)CC2)sc(C)c1C was tested, and the GTP binding activity was inactive: 101%. With Cc1nn(Cc2ccccc2Cl)c(C)c1N the GTP binding activity was inconclusive: 107%. For O=C(O)c1cccc(N2C(=O)/C(=C/c3ccc(SCc4ccc(Cl)cc4)o3)SC2=S)c1, the GTP binding activity was inconclusive: 84%. With COc1ccc(-n2c(N)c(C#N)c3ccc([N+](=O)[O-])cc3c2=O)cc1 the GTP binding activity was inconclusive: 90%. CCOC(=O)/C=C1\SCC(=O)N1CCOc1cccc(Br)c1 was tested, and the GTP binding activity was active: 62%. Brc1ccc(-c2ccc(/C=N/Nc3nc4ccccc4[nH]3)o2)cc1 was tested, and the GTP binding activity was inactive: 99%. With CCN(C(=O)COC(=O)/C=C/c1ccc(O)c(OC)c1)C1CCS(=O)(=O)C1 (stereo unspecified) the GTP binding activity was inactive: 99%. In the case of COc1ccc(C(=O)Nc2cc3c(cc2C#N)OCO3)cc1S(=O)(=O)NCc1ccco1, the GTP binding activity was inconclusive: 104%. Cc1cc(C)cc(Nc2cc(C)nc3nc(C)nn23)c1 was tested, and the GTP binding activity was inconclusive: 102%. For O=S(=O)(O)c1nc2ccccc2n1Cc1ccc(Cl)cc1Cl, the GTP binding activity was inconclusive: 94%. For O=C(O)Cn1ncn(-c2ccc(OC(F)(F)F)cc2)c1=O, the GTP binding activity was inactive: 99%. For Cc1cccc(-n2c(C)cc(/C=N/NC(=O)c3ccc(CN4CCOCC4)cc3)c2C)c1, the GTP binding activity was inconclusive: 94%. For CCNc1nc(C23CC4CC(CC(C4)C2)C3)cs1, the GTP binding activity was inactive: 96%. C[N+]1(C2CCC3CCCC2C3O)CCCCC1 (stereo unspecified) was tested, and the GTP binding activity was inconclusive: 95%. CCOc1ccc(CCNC(=O)COC(=O)c2cc(OC)c(OC)c(OC)c2)cc1OCC was tested, and the GTP binding activity was inactive: 100%. C=C1CSc2nc(=O)c3c4c(sc3n21)CCCC4 was tested, and the GTP binding activity was inconclusive: 92%. For CS(=O)(=O)N(CC(=O)N1CCN(c2ccccc2)CC1)c1ccc(Cl)c(C(F)(F)F)c1, the GTP binding activity was inactive: 99%. In the case of COc1ccc(CC(=O)NNS(=O)(=O)c2ccc(F)cc2)cc1OC, the GTP binding activity was inconclusive: 95%. COc1ccc(OCc2nc(C#N)c(NCCCn3ccnc3)o2)cc1 was tested, and the GTP binding activity was inactive: 97%. With O=c1[nH]c2cc([N+](=O)[O-])c([N+](=O)[O-])cc2[nH]c1=O the GTP binding activity was inconclusive: 87%. For COc1ccccc1CNC(=O)c1cc2c(C)nn(Cc3ccc(F)cc3)c2s1, the GTP binding activity was inconclusive: 106%. With CC(C)CC(C(=O)NC1CCCC1)N(Cc1ccc2c(c1)OCO2)C(=O)c1snc(C(N)=O)c1N (stereo unspecified) the GTP binding activity was inconclusive: 94%. With COc1ccc(Cl)c2c1[nH]c1nc(SCc3ccccn3)nnc12 the GTP binding activity was inconclusive: 88%.
